Measured values published in PubChem BioAssay AID588579 (National Center for Advancing Translational Sciences (NCATS), 2011).
Where “and” joins values, the source holds several entries; their conditions need not be identical. Identical values can stand only once. The whole screen tested about 400,000 compounds, of which about 2,200 (0.55%) were called active. The inconclusive results got no clear call from the source; some entries with a clear call stand among them for comparison. The call rests on the fitted dose curve; in most records, active means well fitted inhibition curve with a large enough effect; inconclusive means small, poorly fitted or top-dose-only effect, or another doubt; inactive means no such curve, though single readings can be large or run the other way. Where the call is inconclusive, the potency comes from a doubtful curve fit.

These molecules were tested against DNA polymerase kappa (Homo sapiens) (UniProt Q9UBT6) (assay: qHTS for Inhibitors of Polymerase Kappa). Details: purified Pol kappa, fluorescent DNA synthesis assay, 10 min; series mostly up to 107 µM; activity, negative = inhibition: at the top concentration.
How it was run: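 50 nM final substrate added after 15 min RT preincubation of 10 nM Pol kappa with compound; fluorescence read at 0 and 10 min.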
On the % scale 0 is the no-effect control and ±100 the full control effect; potency means the concentration at half of the fitted maximal effect; tags describe the fitted curve by direction and shape.

UniProt Q9UBT6, sequence (Q9UBT6 whole entry, looked up): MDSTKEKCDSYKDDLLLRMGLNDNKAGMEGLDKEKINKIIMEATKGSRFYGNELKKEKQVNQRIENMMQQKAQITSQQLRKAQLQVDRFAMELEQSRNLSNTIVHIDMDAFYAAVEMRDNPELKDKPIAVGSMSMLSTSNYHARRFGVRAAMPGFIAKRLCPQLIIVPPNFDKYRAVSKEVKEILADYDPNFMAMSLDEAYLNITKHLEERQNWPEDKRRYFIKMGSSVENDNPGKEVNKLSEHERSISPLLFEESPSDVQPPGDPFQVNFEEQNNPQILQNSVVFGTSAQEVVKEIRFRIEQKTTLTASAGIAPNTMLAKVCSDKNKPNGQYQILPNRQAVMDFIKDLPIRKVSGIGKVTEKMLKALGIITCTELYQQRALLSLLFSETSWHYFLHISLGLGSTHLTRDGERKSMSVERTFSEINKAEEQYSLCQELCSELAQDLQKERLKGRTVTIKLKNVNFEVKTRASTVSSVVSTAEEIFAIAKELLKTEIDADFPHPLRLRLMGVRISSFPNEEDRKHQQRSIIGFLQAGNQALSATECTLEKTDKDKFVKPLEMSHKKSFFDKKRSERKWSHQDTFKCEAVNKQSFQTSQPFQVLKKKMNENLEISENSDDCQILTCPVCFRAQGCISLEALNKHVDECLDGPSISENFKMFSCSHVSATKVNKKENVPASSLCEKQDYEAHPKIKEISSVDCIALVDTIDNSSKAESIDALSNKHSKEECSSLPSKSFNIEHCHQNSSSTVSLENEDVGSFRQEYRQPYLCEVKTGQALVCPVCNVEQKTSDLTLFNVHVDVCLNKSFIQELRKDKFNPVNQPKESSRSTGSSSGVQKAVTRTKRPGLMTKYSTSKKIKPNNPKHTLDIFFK

Potency, inactive:
COc1ccc2c(=O)c3ccccc3oc2c1

Potency, inconclusive:
O=S(=O)(NCCc1nnc2ccc(SCc3c(F)cccc3Cl)nn12)c1ccccc1 100 µM [inhibitor, single point], Cc1nnc2ccc(-c3ccc(NS(=O)(=O)c4ccccc4[N+](=O)[O-])cc3)nn12 89.1 µM [inhibitor, single point], Clc1ccccc1C1Nc2cccc3cccc(c23)N1 63.1 µM [inhibitor, partial curve, poor fit], COc1cc(/C=N/NC(=O)c2ccc3nc[nH]c3c2)cc(OC)c1OC 89.1 µM [inhibitor, single point], O=C(Nc1ccc(Cl)c([N+](=O)[O-])c1)c1cnccn1 89.1 µM [inhibitor, single point], CNC(=O)C1CC(=O)N(c2ccc(OCC(=O)Nc3ccc(F)cc3)cc2)C1 (configuration not stated) 89.1 µM [inhibitor, partial curve, poor fit], COc1ccc(C2CC(=O)c3c(O)cc(OC4OC(COC5OC(C)C(O)C(O)C5O)C(O)C(O)C4O)cc3O2)cc1O (configuration not stated) 5.62 µM [inhibitor, partial curve, poor fit], Cc1ccc2c(CC(=O)OCC(=O)N(CC(C)C)c3c(N)n(Cc4ccccc4)c(=O)[nH]c3=O)coc2c1 79.4 µM [inhibitor, single point], O=C(CSc1nnc(CCc2nc3ccccc3[nH]2)n1-c1ccccc1)NCc1ccccc1 89.1 µM [inhibitor, single point], CCCCCCCCCCCC(CC1OC(=O)C1CCCCCC)OC(=O)C(CC(C)C)NC=O (configuration not stated) 1.12 µM [inhibitor, full curve], CCOC(=O)c1c(-c2ccc(-c3ccccc3)cc2)csc1NC(=O)CCC(=O)O 89.1 µM [inhibitor, partial curve, poor fit], Cc1nnc(-c2cccc(Br)c2)c2cn(-c3ccc(Br)cc3)nc12 50.1 µM [inhibitor, partial curve, poor fit], Cc1oc(-c2ccc(Cl)cc2)cc1-c1nn2c(-c3ccoc3C)nnc2s1 79.4 µM [inhibitor, partial curve], O=C(CSc1nc2ccccc2[nH]1)NC1CCCC1 100 µM [inhibitor, single point], CC(C)c1cc(C(=O)NCc2ccco2)no1 56.2 µM [inhibitor, partial curve, poor fit], CSc1ccc(/C=C/C(=O)c2ccc(NC(C)=O)cc2)cc1 89.1 µM [inhibitor, partial curve, poor fit], O=C(O)CC1S/C(=N/N=C/c2ccc(-c3ccccc3[N+](=O)[O-])o2)NC1=O (configuration not stated) 89.1 µM [inhibitor, partial curve, poor fit], CCN1/C(=C/C(C)=C/c2sc3ccccc3[n+]2CC)Sc2ccccc21 89.1 µM [inhibitor, single point], O=C1NC(=S)N/C1=C/c1cc2c(cc1[N+](=O)[O-])OCO2 28.2 µM [inhibitor, single point], COc1cc(OC)cc(C(=O)NNC(=O)Cc2cccs2)c1 79.4 µM [inhibitor, partial curve], O=C(CCn1cccc1)NCc1ccc2c(c1)OCO2 89.1 µM [inhibitor, single point], Cc1ccc(NS(=O)(=O)c2c(C)[nH]c(=O)[nH]c2=O)c(Br)c1 89.1 µM [inhibitor, partial curve, poor fit], Cc1sc(NC(=O)/C=C/c2ccco2)c(C(=O)O)c1C 100 µM [inhibitor, single point], CC(=O)c1ccc(NS(=O)(=O)c2cccc(S(=O)(=O)c3ccc(Cl)cc3)c2)cc1 89.1 µM [inhibitor, single point], O=C(CSc1ccc(-c2ccco2)nn1)c1ccccc1 89.1 µM [inhibitor, single point], Oc1cccc(/C=N/Nc2ccc(Cl)nn2)c1O 56.2 µM [inhibitor, partial curve, poor fit], c1ccc(C(c2ccccc2)c2nc(-c3cccnc3)no2)cc1 89.1 µM [inhibitor, single point], CCCCC1(C)OC(=O)C(=Cc2ccc(-c3ccc(Cl)c(C(=O)O)c3)o2)C(=O)O1 (configuration not stated) 89.1 µM [inhibitor, single point], CSCc1c(C(=O)OCC(=O)c2ccc[nH]2)oc2ccccc12 100 µM [inhibitor, single point], Cc1cc(N)c2ccccc2[n+]1CCCCCCCCCC[n+]1c(C)cc(N)c2ccccc21 3.55 µM [inhibitor, partial curve, poor fit] and 7.94 µM [inhibitor, full curve, poor fit] and 26.7 µM [inhibitor, partial curve], Cc1cc(NC2CCCC2)n2nc(C)c(-c3ccccc3)c2n1 89.1 µM [inhibitor, single point], Cc1nc2ccc(S(=O)(=O)N(CC(=O)Nc3cccc(Cl)c3)Cc3ccccc3)cc2s1 89.1 µM [inhibitor, partial curve, poor fit], O=C1NN(c2ccccc2)C(=O)/C1=C\c1cccn1-c1ccc(Cl)c([N+](=O)[O-])c1 100 µM [inhibitor, single point], Nc1nc2ncc(CNc3ccc(C(=O)NC(CCC(=O)O)C(=O)O)cc3)nc2c(=O)[nH]1 (configuration not stated) 39.8 µM [inhibitor, single point], COc1ccc2c(c1)c(=Cc1ccc(N(C)C)cc1)c1cc(-c3ccccc3)[n+](C)n12 20 µM [inhibitor, full curve], CN(C)c1ccc(/C=C(/NC(=O)c2ccccc2)C(=O)N/N=C/c2ccc([N+](=O)[O-])c(O)c2)cc1 89.1 µM [inhibitor, single point], Cc1cc2nc3ccc(N(C)C)cc3nc2cc1N 3.16 µM [inhibitor, full curve, poor fit], Cc1ccc(N(CC(=O)NCc2ccc(F)cc2)S(=O)(=O)c2c(C)nn(C)c2C)cc1 100 µM [inhibitor, single point], O=C(O)CCCN1C(=O)/C(=C\C(Cl)=C\c2ccccc2)SC1=S 89.1 µM [inhibitor, partial curve, poor fit], Cc1cc2cc(C(c3nnnn3Cc3ccco3)N3CCc4ccccc43)c(=O)[nH]c2cc1C (configuration not stated) 79.4 µM [inhibitor, partial curve, poor fit]

Potency, active:
CCNc1ccccc(C(=O)/C=C/c2ccc3c(c2)OCO3)c1=O 25.1 µM, COc1ccc(Cc2nnc(NC(=O)Cc3cccs3)s2)cc1OC 79.4 µM, COc1ccc(C2=Nn3c(nnc3-c3ccccc3OC)SC2)cc1OC1CCOC1 (configuration not stated) 44.7 µM, COc1cccc2c1C(=O)c1c(O)c3c(c(O)c1C2=O)C[C@](O)(C(=O)CO)C[C@H]3O[C@@H]1C[C@H](N)[C@H](O)[C@H](C)O1 1.5 µM, COc1ccc(-c2csc(NC(=O)CSc3nc(C)nc4sc(C(=O)O)c(C)c34)n2)cc1 31.6 µM, CCOC(=O)c1c(C)oc2c(F)c(F)c(F)c(F)c2c1=O 79.4 µM, O=C(O)C1Nc2c(O)cc(Cl)c([N+](=O)[O-])c2C2C=CCC12 (configuration not stated) 1.78 µM, C[C@@H]1OC(OC2CC[C@@]3(C)C(CC[C@@]4(C)C3CC=C3C5CC(C)(C)CC[C@]5(C(=O)OC5OCC(O)[C@@H](O)[C@@H]5OC5O[C@@H](C)[C@H](O[C@H]6OC(CO)C(O)C(O)C6O)C(O)C5O)C(O)C[C@@]34C)C2(C)C)C(O)C(O)[C@H]1OC1OCC(O)C(O)[C@H]1O (some centres not stated) 25.1 µM, Cc1nc(NC(=O)COC(=O)/C=C/c2ccco2)c(Cl)cc1Cl 70.8 µM

activity, negative = inhibition, inactive:
CN(C)c1ccc(CNC(=O)c2ccc3c(c2)N(C)C(=O)C2CCCCN32)cc1 (configuration not stated) -2.49% [at 60.1 µM], CN(C)c1ccc(-c2cncnc2NCCN2CCOCC2)cc1 4.17% [at 60.1 µM], O=C(O)COc1cccc(/C=C2/SC(=S)N(Cc3ccccc3)C2=O)c1 -42.3%, NC1=NC(=O)/C(=C/c2cn(CCC(=O)O)nc2-c2ccc(Cl)cc2)S1 -15.5%, COC(=O)c1c(NC(=O)COC(=O)c2ccccc2O)sc2c1CCCCC2 0.609%, COc1ccccc1CN1CCNC(=O)C1CC(=O)N(C)Cc1ccon1 (configuration not stated) -6.53%, O=C1/C(=C/c2cccnc2)SC(=S)N1NS(=O)(=O)c1ccccc1 -12.3%, CCOC(=O)c1cnc2nc(NCc3ccc(OCC)cc3)[nH]n2c1=O 0%, O=C(CSc1ccc(-c2ccco2)nn1)Nc1ccc(F)cc1F -25.3%, COc1ccccc1NC(=O)C1=C(C)Nc2nc(SCc3ccccc3Cl)nn2C1c1ccccn1 (configuration not stated) 5.37%, Fc1ccc(/C=C/c2nccc3ccccc23)cc1 -37.3%, NC(=O)c1nsc(C(=O)N(Cc2cccnc2)C(C(=O)NCc2ccc(F)cc2)c2ccc(F)cc2)c1N (configuration not stated) -10.7%
